± gives the standard deviation of the averaged measurements. The full ranking holds about 33,000 sequences; the median of “E-score (dimensionless, -0.5 to 0.5)” is about -0.049, and the highest 2% start at about 0.37. Some of the results follow.
system: T1, PmTbr T-box DNA-binding domain (GST fusion); assay: PBM E-score of 8-mer (E-score (dimensionless, -0.5 to 0.5)); Tbr is Tbrain of the sea star Patiria miniata (Pm) or the sea urchin Strongylocentrotus purpuratus (Sp); higher = stronger binding preference; most listed sequences are background and not binding sites; conditions: the construct has about 5 more residues each side
T1 sequence: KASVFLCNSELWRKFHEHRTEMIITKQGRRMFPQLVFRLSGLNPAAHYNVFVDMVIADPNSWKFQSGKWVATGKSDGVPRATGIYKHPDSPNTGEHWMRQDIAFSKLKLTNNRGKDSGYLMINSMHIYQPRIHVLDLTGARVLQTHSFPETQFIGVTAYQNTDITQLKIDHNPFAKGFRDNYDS
Experimental: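 Universal protein-binding microarray (Agilent AMADID 016060, 60-bp probes with a 35-bp variable region) incubated with 200 nM GST-fused Patiria miniata Tbr T-box DNA-binding domain (residues 272-466) in PBS pH 7.5. Scored for every ungapped 8-mer (given with its reverse complement) by the Universal PBM Analysis Suite as E-score (modified Wilcoxon-Mann-Whitney enrichment, range -0.5 to 0.5; >0.45 counts as bound) and Z-score of median probe intensity. Two replicate arrays (datasets 1 and 2).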
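Also: 200 nM protein in PBS on universal arrays averaged over duplicate arrays.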

| Sequence | PBM E-score of 8-mer |
| --- | --- |
| TAGGAAAA | -0.238 ± 0.011 |
| ACCGCTTA | -0.264 ± 0.036 |
| AAGCTCGG | -0.0972 ± 0.0053 |
| AGAGATTG | 0.0395 ± 0.077 |
| AGAGCTGA | -0.121 ± 0.0094 |
| ATTGTTCC | -0.116 ± 0.042 |
| AGGCGGAG | -0.153 ± 0.052 |
| AGTCGGCA | 0.00896 ± 0.086 |
| GCGCAGCC | -0.0806 ± 0.044 |
| ATATAGAT | -0.118 ± 0.0054 |
| GTCGTGTA | -0.113 ± 0.021 |
| AACCCACG | -0.0612 ± 0.011 |
| CACCCCAG | 0.296 ± 0.035 |
| AATCCACA | 0.142 ± 0.032 |
| CCGTCAAC | 0.17 ± 0.063 |
| AGGTTGGG | -0.19 ± 0.09 |
| TCACCCCA | 0.277 ± 0.028 |
| AATATCCA | -0.0969 ± 0.06 |
| AGTATGAC | 0.108 ± 0.0027 |
| GAGTGGAC | -0.0288 ± 0.0039 |
| GCGATGAC | 0.129 ± 0.075 |
| AAAATGTG | 0.27 ± 0.095 |
| CCGTGATA | 0.0314 ± 0.051 |
| AAACCAGG | 0.0346 ± 0.032 |

| Sequence | PBM E-score of 8-mer |
| --- | --- |
| ACCCTCAC | 0.134 ± 0.027 |
| ATAGCTGA | -0.0524 ± 0.042 |
| GATTTCCA | 0.119 ± 0.089 |
| AAGCTAGA | -0.243 ± 0.061 |
| GGAAGATA | -0.202 ± 0.043 |
| CGCACCTC | 0.46 ± 0.012 |
| CAGTTGCA | 0.153 ± 0.0058 |
| CATGTTAC | -0.082 ± 0.053 |
| GTAGCAAA | 0.0673 ± 0.034 |
| CAGCCCCG | -0.229 ± 0.0034 |
| CCATAGCC | -0.144 ± 0.005 |
| CCGGCCGA | -0.195 ± 0.064 |
| TAGCGTCA | 0.203 ± 0.013 |
| ATCGGCAT | -0.113 ± 0.0075 |
| CACTCTTC | 0.198 ± 0.067 |
| GTTAATGA | -0.0185 ± 0.1 |
| CACGCAGG | 0.178 ± 0.013 |
| CGACAGCC | 0.0934 ± 0.031 |
| AAGACATC | -0.106 ± 0.014 |
| ATCCTGGA | -0.102 ± 0.034 |
| GGTCCATA | -0.312 ± 0.024 |
| ATGATTTC | 0.0109 ± 0.057 |
| GTGAAACA | 0.188 ± 0.036 |
| CCCCCAGG | -0.158 ± 0.029 |

| Sequence | PBM E-score of 8-mer |
| --- | --- |
| CGTAAAAC | -0.145 ± 0.089 |
| CGACATTA | 0.136 ± 0.021 |
| GTAGCCTA | -0.0631 ± 0.06 |
| GCATTGAA | -0.19 ± 0.044 |
| GTAGCGAC | 0.171 ± 0.012 |
| GGCCTAGA | -0.326 ± 0.028 |
| AGGTAGTC | -0.274 ± 0.053 |
| AGCCAGAC | -0.251 ± 0.013 |
| ACTCTGAC | 0.114 ± 0.032 |
| ACTCATCG | -0.0034 ± 0.056 |
| GACAGGAC | 0.00186 ± 0.0023 |
| GGCCAGGA | -0.197 ± 0.062 |
| CGTGTCCC | -0.0561 ± 0.065 |
| GCTAACGA | 0.274 ± 0.0092 |
| AACTTACA | 0.0426 ± 0.038 |
| CATAAATG | 0.0124 ± 0.021 |
| CATCTTTC | 0.022 ± 0.032 |
| ACACCCAT | 0.333 ± 0.021 |
| GCGCTACA | 0.131 ± 0.063 |
| AAATGTCC | -0.152 ± 0.023 |
| AAATTCCC | -0.166 ± 0.013 |
| AATGGCGT | 0.208 ± 0.06 |
| GGGGGATA | 0.000625 ± 0.059 |
| AAGGCACG | -0.0734 ± 0.0059 |

| Sequence | PBM E-score of 8-mer |
| --- | --- |
| AAGTAAGA | -0.133 ± 0.027 |
| GTGGGCAA | -0.128 ± 0.038 |
| AAGTCGCC | -0.0381 ± 0.062 |
| CAGGCAAA | -0.332 ± 0.035 |
| CCTGGACC | -0.229 ± 0.018 |
| ATCGGAAC | -0.1 ± 0.0083 |
| ACCCCACG | -0.112 ± 0.085 |
| GCGCTAAC | 0.4144 ± 0.0034 |
| CCAGAGCG | -0.218 ± 0.092 |
| ACGTCTAC | -0.1942 ± 0.0013 |
| AAATCCCC | -0.151 ± 0.024 |
| AGCCTGAA | -0.153 ± 0.018 |
| ATGCTCGC | 0.14 ± 0.0031 |
| CTAACTAA | 0.207 ± 0.013 |
| AACTTGGC | 0.0756 ± 0.007 |
| ACCATTGG | -0.068 ± 0.046 |
| ACTGACGG | 0.0814 ± 0.057 |
| ACTCCCTC | 0.00055 ± 0.049 |
| GACGCATA | 0.00583 ± 0.0042 |
| ACACACTC | 0.269 ± 0.0055 |
| AACGCCTA | 0.279 ± 0.034 |
| CATGAATA | -0.245 ± 0.015 |

Source: the supplement of paper PMC4166925
